Test results published in the supplement of paper PMC12217912.
This is one part of the list. Sequences were assembled here from the parent chain. Values near 0.05 are background.

B1: TEV protease; numbered along this chain (parent)
chain: MGESLFKGPRDYNPISSSICHLTNESDGHTTSLYGIGFGPFIITNKHLFRRNNGTLVVQSLHGVFKVKDTTTLQQHLVDGRDMIIIRMPKDFPPFPQKLKFREPQREERICLVTTNFQTKSMSSMVSDTSCTFPSGDGIFWKHWIQTKDGQCGSPLVSTRDGFIVGIHSASNFTNTNNYFTSVPKNFMELLTNQEAQQWVSGWRLNADSVLWGGHKVFMVKPEEPFQPVKEATQL

Variants of: B1
Experiment: raw area under fraction-flipped curve 0-4 h after induction (AUC4h, not background-subtracted), DNA-recorder readout of cleavage of the substrate (dimensionless); higher = more cleavage of the substrate by the protease variant
Conditions: temperature: 34 °C; time window: 0-4 h after rhamnose induction
Experimental: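 In vivo DNA recorder in E. coli TOP10(DE3) ΔrhaA at 34 °C. Each TEVp single-site mutant (parent TEVp 0) is paired with a single-site variant of the 7-mer TEVs (canonical ENLYFQ|S). The substrate sits between flexible linkers in a Bxb1-sfGFP-TEVs-SsrA fusion, so cleavage stabilises Bxb1 and speeds flipping of a recombination array, read by NGS. The value is the raw area under the fraction-flipped curve over 0-4 h after rhamnose induction (AUC4h), with ≥20 reads per time point. It is not background-subtracted; inactive controls average about 0.047.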
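Also: Bxb1 expression induced with 0.2% (w/v) L-rhamnose at OD600 near 0.5, cultures sampled hourly, flipped fraction per protease–substrate barcode pair counted by paired-end Illumina sequencing.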

Row | Variant | area with substrate ENLYFQA | area with substrate ENLYFQC | area with substrate ENLYFQD | area with substrate ENLYFQE | area with substrate ENLYFQH | area with substrate ENLYFQI | area with substrate ENLYFQK | area with substrate ENLYFQL | area with substrate ENLYFQM | area with substrate ENLYFQN | area with substrate ENLYFQR | area with substrate ENLYFQS | area with substrate ENLYFQT | area with substrate ENLYFQV | area with substrate ENLYFQW | area with substrate ENLYFQF | area with substrate ENLYFQG | area with substrate ENLYFQP | area with substrate ENLYFQY | area with substrate ENLYFQQ
1 | F38H | 0.091 | 0.127 | 0.0722 | 0.0566 | 0.0809 | 0.0589 | 0.0497 | 0.056 | 0.0872 | 0.0705 | 0.0606 | 0.0887 | 0.0649 | 0.0579 | 0.0642 |  |  |  |  | 
2 | F38Q | 0.0807 | 0.108 | 0.0659 |  | 0.068 | 0.0546 | 0.0563 | 0.0518 | 0.0772 | 0.08 | 0.0544 | 0.0945 | 0.0616 | 0.0638 | 0.0625 | 0.0695 | 0.166 | 0.0679 | 0.0656 | 
3 | G63S | 0.0986 | 0.126 | 0.0587 |  |  | 0.0665 | 0.0592 | 0.0593 |  | 0.0669 | 0.057 | 0.0975 | 0.0591 | 0.0421 | 0.0643 | 0.0671 | 0.0849 | 0.0539 | 0.0736 | 0.0742
4 | I42K | 0.0407 | 0.0414 |  | 0.054 | 0.046 | 0.0469 | 0.0314 | 0.0419 | 0.0396 | 0.0432 | 0.0465 | 0.0473 | 0.0413 | 0.0315 | 0.0492 |  | 0.0367 | 0.0591 | 0.0578 | 
5 | V67P | 0.0405 | 0.0633 |  |  |  | 0.0412 |  | 0.0453 | 0.0359 | 0.0415 | 0.0387 | 0.0508 | 0.0279 |  | 0.0456 |  | 0.0418 |  |  | 0.0417
6 | V67Y | 0.0359 | 0.0833 | 0.0814 |  |  |  |  | 0.0623 |  |  | 0.0582 | 0.0806 | 0.0704 |  | 0.0632 |  |  |  |  | 
7 | V58H | 0.0388 | 0.0676 |  |  |  | 0.0507 |  |  | 0.0545 |  | 0.0384 | 0.0507 |  |  |  |  |  |  |  | 
8 | V58N | 0.101 |  |  |  | 0.0598 |  |  |  |  | 0.0635 | 0.0404 | 0.0553 | 0.0441 |  |  |  | 0.0706 |  | 0.0468 | 0.0643
9 | P14L | 0.111 | 0.175 |  |  | 0.0759 | 0.0512 | 0.0692 | 0.0872 | 0.0882 | 0.0748 | 0.0617 | 0.105 | 0.0582 |  |  | 0.0673 | 0.0353 |  | 0.0863 | 
10 | G2L | 0.112 |  |  | 0.0281 | 0.0993 |  | 0.0535 | 0.0588 | 0.149 |  | 0.0576 | 0.13 |  |  | 0.0678 |  |  |  |  | 
11 | G2C | 0.144 |  |  |  |  |  |  | 0.0464 | 0.141 |  |  | 0.124 |  |  |  |  |  |  |  | 
12 | D27M | 0.0587 | 0.0971 |  |  | 0.0682 | 0.0527 |  | 0.0625 |  |  | 0.0662 | 0.091 | 0.063 |  | 0.0791 |  | 0.0644 | 0.044 |  | 0.0733
13 | N52A | 0.0661 | 0.0696 |  | 0.0572 | 0.0704 |  | 0.0607 | 0.0572 | 0.047 | 0.0648 | 0.0623 | 0.0778 | 0.0679 |  | 0.0601 |  | 0.0744 | 0.0589 | 0.065 | 
14 | N52L | 0.0637 | 0.0638 | 0.0674 | 0.0624 |  | 0.0587 | 0.0705 |  | 0.0607 | 0.0793 | 0.0374 | 0.0677 | 0.0551 | 0.066 |  | 0.0403 | 0.067 | 0.0648 | 0.0481 | 
15 | E25H | 0.0837 | 0.106 | 0.0558 |  |  | 0.0646 | 0.0536 | 0.0617 | 0.0757 | 0.0927 |  | 0.0984 |  | 0.0597 | 0.0376 |  |  |  |  | 
16 | E25M | 0.121 | 0.119 | 0.0943 | 0.056 | 0.0945 |  | 0.0599 | 0.0573 | 0.117 | 0.0864 | 0.055 | 0.105 | 0.0621 | 0.0567 | 0.0681 | 0.0848 | 0.113 | 0.0755 | 0.0824 | 0.0591
17 | F6W | 0.105 | 0.131 | 0.0697 |  | 0.0983 | 0.0438 | 0.0675 | 0.062 | 0.0444 | 0.0765 | 0.0716 | 0.0995 | 0.0678 | 0.0578 | 0.0626 | 0.0633 | 0.0913 | 0.0687 | 0.0738 | 
18 | F6D | 0.0892 | 0.0873 |  |  |  | 0.0705 | 0.0658 | 0.0619 |  | 0.0788 |  | 0.0909 | 0.0949 |  | 0.068 |  |  |  |  | 0.0667
19 | T55L | 0.0818 | 0.103 |  | 0.0543 | 0.0739 | 0.0571 | 0.0667 | 0.0563 | 0.082 |  | 0.0572 | 0.0891 | 0.064 | 0.0628 | 0.0607 |  |  | 0.0492 |  | 0.0614
20 | S18H | 0.097 | 0.123 | 0.0812 |  | 0.0828 |  | 0.0618 | 0.0629 | 0.0893 |  |  | 0.105 | 0.0719 | 0.0651 | 0.0651 | 0.0701 | 0.12 |  | 0.0719 | 0.0616
21 | R51Y | 0.107 |  |  |  | 0.0792 |  | 0.0641 |  | 0.0859 |  |  | 0.117 | 0.0742 | 0.0925 |  |  | 0.116 | 0.0574 | 0.105 | 
22 | R51P | 0.059 | 0.0686 | 0.0701 |  | 0.0644 | 0.0447 | 0.059 | 0.0769 |  | 0.0712 |  | 0.0686 | 0.112 | 0.0554 |  | 0.0446 | 0.0713 |  | 0.0517 | 0.043
23 | R51W | 0.105 | 0.112 | 0.0569 |  |  | 0.0552 | 0.0549 | 0.0738 |  | 0.102 | 0.0559 | 0.119 | 0.0697 | 0.0572 |  | 0.0835 |  |  |  | 0.0617
24 | S17T | 0.111 | 0.122 | 0.0844 |  |  | 0.0559 |  | 0.0663 | 0.091 |  | 0.059 | 0.113 | 0.0692 | 0.0471 | 0.0666 |  | 0.101 | 0.0722 |  | 
25 | S17I | 0.0991 | 0.101 |  |  | 0.0767 | 0.0495 | 0.0679 | 0.0559 |  |  | 0.0534 | 0.106 | 0.0466 |  | 0.0452 |  | 0.0886 |  | 0.0706 | 
26 | R50G | 0.0856 | 0.103 |  |  |  | 0.0593 | 0.0791 | 0.0628 | 0.0861 | 0.0807 | 0.0994 | 0.107 | 0.0609 | 0.0531 | 0.0655 |  | 0.107 |  | 0.0697 | 
